Experimental data reported in ChEMBL document CHEMBL1156829.
The full ranking holds about 5,400 compounds; the median of “IFI” is about 2, and the highest 2% start at about 22. The list shows a part of the results.

assay: NOVARTIS: Inhibition Frequency Index (IFI) - the number of HTS assays where a compound showed > 50% inhibition/induction, expressed as a percentage of the number of assays in which the compound was tested.; assay type: functional

| SMILES | IFI [%] |
| --- | --- |
| Cc1ccc(NC(=O)CSc2nc3cc(C(=O)NCCCOC(C)C)ccc3c(=O)n2Cc2ccco2)cc1Cl | 0 |
| N#CCSc1nc2c(sc(=S)n2-c2ccccc2)c(=O)n1Cc1ccco1 | 0 |
| CCN1CCN(c2ccc(Nc3c4ccccc4nc4ccccc34)cc2)CC1 | 21.4 |
| CCCN(CCC)S(=O)(=O)c1cc(Br)cc2c1N(C(=O)C1CC1)CC2 | 0 |
| O=C1CSC(=Nc2ccc(F)c(Cl)c2)N1c1ccc(F)c(Cl)c1 | 0 |
| CC(C)CNC(=O)c1cnc(NCCCN2CCCCC2C)nc1Nc1ccccc1 (centres undefined) | 1.85 |
| CCOC(=O)C(=CNc1ccc(I)cn1)C(=O)OCC | 2.53 |
| CN(CCCNc1ccnc2cc(Cl)ccc12)C(=O)COCc1ccccc1 | 0.935 |
| CN(CCCNc1ccnc2cc(Cl)ccc12)C(=O)c1ccc(-c2ccccc2)cc1 | 2.83 |
| COc1ccccc1N(CN1C(=O)c2ccc(Br)cc2C1=O)C(C)=O | 0 |
| CCCCN1C(=O)/C(=C/N(C(=O)CC)c2ccccc2)SC1=S | 0 |
| O=C1CC(c2ccccc2)CC2=C1C(c1ccccc1F)Nc1ccccc1N2 (centres undefined) | 1.18 |
| Cc1c(C(=O)Nc2ccccc2)sc2ncn(Cc3ccccc3F)c(=O)c12 | 0 |
| CC(C)c1nc(N2CCN(C(=O)Nc3ccccc3)CC2)c(C#N)c2c1COC(C)(C)C2 | 2.41 |
| COc1cc(NC(C)CCCN(Cc2ccc(Cl)cc2)C(=O)Nc2ccc(Cl)cc2Cl)c2ncccc2c1 (centres undefined) | 1.8 |
| Nc1ccnc2cc(Cl)ccc12 | 1.75 |
| COc1ccc(CCN2C(=O)CC(C(=O)Nc3cccc(Cl)c3)SC2=Nc2ccccc2)cc1OC (centres undefined) | 0 |
| COc1ccc(Cl)cc1-n1c(-c2cccnc2)n[nH]c1=S | 0 |
| COc1ccc(-c2csc3nc(COc4cccc(C)c4)nn23)c(O)c1 | 0 |
| Cc1oc2c(c1C(=O)N1CCCC1)C(=O)c1ccccc1C2=O | 6.67 |
| CCN1/C(=C/c2sc3ccccc3[n+]2CC)C=Cc2cc(NC(C)=O)ccc21 | 7.69 |
| CC(C)CN1C(=O)c2ccccc2C(C(=O)Nc2cccc(Cl)c2)C1c1cccs1 (centres undefined) | 6.25 |
| CCOc1ccc(CN(C(=O)COc2ccc(Cl)cc2)C(C)CCCN(CC)CC)cc1 (centres undefined) | 2.7 |
| CC(C)(CCl)C(=O)NCCCCNc1ccnc2cc(Cl)ccc12 | 1.87 |
| CC(C)(C)CC(C)(C)Nc1c(-c2ccccc2OC(=O)c2cccc(Br)c2)nc2ccccn12 | 4.72 |
| CCCN1CCC(NC2CCCc3c2[nH]c2ccc([N+](=O)[O-])cc32)CC1 (centres undefined) | 8.33 |

| SMILES | IFI [%] |
| --- | --- |
| Cc1ccc(-c2cc(C(F)(F)F)n3ncc(C(=O)Nc4cc(Cl)ccc4O)c3n2)cc1 | 4.65 |
| Clc1ccc(C[n+]2cc(-c3ccccc3)n3c2CCC3)cc1Cl | 3.77 |
| CCN(c1ccccc1)S(=O)(=O)c1ccc(F)c(C(=O)Nc2c(C)cccc2C)c1 | 0 |
| COC(=O)c1ccc(S(=O)(=O)N2CCC3(CC2)Nc2ccccc2-n2cccc23)cc1 | 0 |
| Cn1c(=O)n(C)c2cc(NC(=O)CCl)ccc21 | 0 |
| CC(CNC(=O)c1cn(C2CCCCC2)cc(C(=O)NC(C)(C)C)c1=O)c1ccccc1 (centres undefined) | 0.99 |
| COc1cc(OC)cc(C(=O)N2CCC(C(=O)Nc3cccc4ccccc34)CC2)c1 | 1.92 |
| O=C(NN=Cc1ccncc1)c1cc(-c2cccc([N+](=O)[O-])c2)[nH]n1 | 0 |
| CCc1noc(C)c1C(=O)NCCN1Cc2ccccc2OC(c2ccsc2)C1 (centres undefined) | 0 |
| Cc1ccc2nc(-c3ccccc3)cc(C(=O)Nc3ccc(Cl)cc3)c2c1 | 3.08 |
| Clc1ccc(-c2c[n+](Cc3ccccc3Cl)c3n2CCC3)cc1Cl | 7.32 |
| O=C1CN(C(=O)CC2CCCCC2)C(c2ccccc2)c2cc(Cl)ccc2N1 (centres undefined) | 2.27 |
| N#Cc1ccccc1Cn1ccc(=NCc2ccccc2)cc1 | 0 |
| CCN1/C(=C/c2cccc[n+]2C)C=Cc2cc(C)ccc21 | 15.4 |
| COc1ccc(-c2csc3ncn(N)c(=O)c23)cc1 | 0 |
| COc1cccc(C2Sc3ccccc3NC3=C2C(=O)c2ccccc23)c1 (centres undefined) | 3.57 |
| O=C(Nc1cnc2ccccc2c1)c1cccc(-n2cnnn2)c1 | 7.21 |
| OCC1CCCCN1Cc1cc(-c2ccccc2)ccc1O (centres undefined) | 0.84 |
| Fc1cc(F)c(C2SCCN2C(=S)Nc2cccc(C(F)(F)F)c2)c(F)c1 (centres undefined) | 0 |
| Oc1ccc(-c2cncc(NCc3ccccc3)n2)cc1 | 0 |
| N=c1n(Cc2ccccc2)c2ccccc2n1CC(O)c1ccc(Br)cc1 (centres undefined) | 0 |
| CCN(CC)CCNc1ccnc2cc3ccccc3cc12 | 7.45 |
| O=C(c1ccc2nc(N3CCCCC3)sc2c1)N1CCN(Cc2ccccc2)CC1 | 0 |
| CC1CCc2c(sc(NC(=O)c3ccccc3F)c2C(=O)NCc2ccccc2)C1 (centres undefined) | 0 |
| Cc1cc2c(cc1S(=O)(=O)N(C)C1CCCCC1)OCC(=O)N2 | 0 |
| Cc1ccc(S(=O)(=O)Nc2ccc(C(=O)NCCC(C)C)cc2)cc1 | 0 |

| SMILES | IFI [%] |
| --- | --- |
| CCc1ccc(C=NNC(=O)COc2ccc3c(c2)OCO3)cc1 | 0 |
| COc1ccc(OCCOCCN2CCN(C)CC2)cc1 | 0 |
| Cc1occc1C(=O)NN=C/C(Cl)=C/c1ccccc1 | 7.69 |
| Cc1cccc(NC2=NC(N)=NC(C)(C)N2)c1 | 0 |
| CCc1ccc(CN2CCC(O)(c3ccc4oc(C(=O)Nc5ccc6c(c5)OCO6)cc4c3)CC2)cc1 | 6.9 |
| COc1ccccc1NC1=CC(=NS(=O)(=O)c2ccc(F)cc2)c2ccccc2C1=O | 15.4 |
| O=c1c2ccccc2[nH]c2cc(Cl)ccc12 | 2.7 |
| CCCCOc1ccc(/C=C(/C#N)c2nc(-c3ccc(-c4ccccc4)cc3)cs2)cc1 | 0 |
| COc1cc(NC(C)CCCN(Cc2ccc(F)cc2)C(=O)CCc2ccccc2)c2ncccc2c1 (centres undefined) | 1.71 |
| Cc1cc(/C=C2\SC(=Nc3ccccc3)N(C3CCCCC3)C2=O)c(C)n1-c1ccc(Br)cc1 | 1.18 |
| Cc1c2ccccc2cc(Cc2ccccc2)[n+]1C | 6.3 |
| COc1ccc(/C=C2\N=C(c3ccc(Cl)cc3)N(c3ccccc3)C2=O)cc1OC | 0 |
| Cc1c(C(=O)NCCN2CCCC2)cnn1-c1ncc2c(n1)-c1ccccc1SC2 | 2.59 |
| c1ccc2cc3c(Nc4ccc(N5CCOCC5)cc4)ccnc3cc2c1 | 0 |
| Cc1ccc(C2CC3=Nc4ccccc4N(C(=O)C(F)(F)F)C(c4ccc(OCc5ccccc5)cc4)C3=C(O)C2)cc1 (centres undefined) | 2.44 |
| Nc1nc(N)c2cc(S(=O)(=O)N3CCOCC3)ccc2n1 | 9.38 |
| CCCCCCN(C(=O)COc1ccccc1)C(CC)c1nc2ccccc2c(=O)n1-c1cccc(Cl)c1 (centres undefined) | 0.935 |
| Cc1ccc(Nc2cc(C)nc(NCc3ccccc3)n2)c(C)c1 | 10.4 |
| COc1ccc(C)cc1Nc1nc(N)c2cc(OC)c(OC)cc2n1 | 0 |
| CN(C)CCNc1ncnc2c1[nH]c1ccc(Cl)cc12 | 7.84 |
| CN(C)CCCNc1ncnc2c1[nH]c1ccc(Br)cc12 | 4 |
| O=C(Nc1ccncc1)Nc1cccc(NC(=O)Nc2ccncc2)c1 | 0 |
| Cc1cccc(CN2CCC(CNC(=S)Nc3ccc4nc(N5CCN(C)CC5)cc(C)c4c3)CC2)c1 | 8.33 |
| Cc1ccn2c(NC(C)(C)CC(C)(C)C)c(-c3ccccc3OC(=O)c3ccc(F)cc3)nc2c1 | 2.8 |
| O=C(C1CC1)N1CCc2cc(Br)cc(S(=O)(=O)N3CCCCCC3)c21 | 0 |
| CCCN1CCC(NC(c2ccccc2)c2ccc(Cl)cc2)CC1 (centres undefined) | 1.61 |

| SMILES | IFI [%] |
| --- | --- |
| CCNc1nc(NC(C)(C)C)nc(N2CCCC2)n1 | 0 |
| Cc1cccc(Nc2c3c(c(C#N)c4nc5ccccc5n24)CCC3)c1 | 0 |
| CCC(=O)N1CCN(C(=O)c2ccc(C)cc2)C1 | 0 |
| CN1CCN(C(=S)NC(=O)/C=C/c2ccc(F)cc2)CC1 | 0 |
| CCCCCN(C(=O)c1ccc(C(C)(C)C)cc1)C(CC)c1nc2ccccc2c(=O)n1-c1ccccc1OC (centres undefined) | 0 |
| Cc1ccc(OCCCCN2CCOCC2)c([N+](=O)[O-])c1 | 0 |
| Clc1ccc(-c2c[n+](Cc3ccccc3Cl)c3n2CCC3)cc1 | 2.38 |
| CCCCN1Cc2ccc(C(=O)NC(C)C)cc2N=C1c1ccc(F)cc1 | 1.22 |
| COc1cc(NC(C)=C2C(=O)c3ccccc3C2=O)c(OC)cc1Cl | 0 |
| Cc1ccc[n+](C(C)C(=O)c2ccc(-c3ccccc3)cc2)c1 (centres undefined) | 0 |
| CN(CCCNc1ccnc2cc(Cl)ccc12)C(=O)CC(C)(C)C | 7.48 |
| CCOC(=O)c1ccc(Nc2nc(N)c3cc(OC)c(OC)cc3n2)cc1 | 0 |
| COc1cc(C(=O)N2CCN(Cc3cccc(Br)c3)CC2)cc(OC)c1OC | 1.12 |
| COc1cccc(C(=O)N(CCCC(C)Nc2cc(OC)cc3cccnc23)Cc2ccc(F)cc2)c1 (centres undefined) | 2.8 |
| Cc1ccc(-c2c3c(nc4sc(C(=O)Nc5ccc(F)cc5)c(N)c24)CCC3)cc1 | 7.14 |
| N#C/C(=C\c1cn(Cc2ccccc2Cl)c2ccccc12)c1nn(CCO)c(N)c1C#N | 0 |
| CC(C)(C)OC(=O)N1CCC(c2c(C(=O)Nc3cccc(C(F)(F)F)c3)cnn2-c2ccc(F)cc2F)CC1 | 0 |
| CCN(CC)CCCC(C)Nc1nc(/C=C/c2ccc(Br)cc2)nc2cc(Cl)ccc12 (centres undefined) | 3.97 |
| O=C(Nc1ccc(NC2=NCCN2)cc1)c1ccc(C(=O)Nc2ccc(NC3=NCCN3)cc2)cc1 | 2.61 |
| Oc1cccc2ccc(Nc3ccccn3)nc12 | 15.2 |
| CC[n+]1c(/C=C2\C=Cc3cc(C)ccc3N2C)ccc2cc(C)ccc21 | 15.4 |
| COc1cccc(-c2ccc(O)c(CNCCc3cccc(F)c3)c2)n1 | 0.901 |
| COc1ccc(C2C(C(=O)Nc3ccc(OC)c(OC)c3)CCC(=O)N2c2ccc(OC)cc2)cc1 (centres undefined) | 0 |
| COc1ccc(OCC(=O)Nc2cccc(NC(=O)COc3ccc(OC)cc3)n2)cc1 | 0 |
| CCCOc1ncnc2c1sc1nc3c(cc12)COC(C)(C)C3 | 1.8 |
| CCOc1ccc(-n2nc(C(=O)NCCCN(C)Cc3ccccc3)c3ccccc3c2=O)cc1 | 2.63 |
